{"source": "paper PMC12136788", "binders": {"B1": {"name": "chr16:2602459:2602560:+|3pUTR|ENSG00000140992|msi1|FALSE|bound_elsewhere (ssRNA)", "RNA": "GGGAGUUCUACAGUCCGACGAUCAACUAUGUACAGAGAACUUUUUACAAAAGGCAGACCUUUUUUAAGCUGUGUAACCCACAUAGCCUAACCACCUGGCAGAAUGACUACGAAUAGGGGUCAUUGUGCUGGUAAAAGCCUCUACAACAGAGGAUUGAGCAUCA"}, "B2": {"name": "chr14:44924370:44924471:-|3pUTR|ENSG00000179454|unk|FALSE|unique (ssRNA)", "RNA": "GGGAGUUCUACAGUCCGACGAUCACCUUUUUAGCAUCAGGGUUUUAUUUUAUUUAUGUUUACACACUAAAGUGUCAUUUAACUAGUUAAGAAUUGUAUUCUUUUUUAUUUUAAAGGUUAUUUGUGUGUAUCAUUGUGGUAAUGCAACAGAGGAUUGAGCAUCA"}, "B3": {"name": "chr17:35724233:35724342:+|3pUTR|ENSG00000006125|msi1_unk|FALSE|overlapping (ssRNA)", "RNA": "GGGAGUUCUACAGUCCGACGAUCUCCUGGAGGCAGAGAUGCAGUUACCUACCCUAGCUUUUGAUGGGUUCUCUUACCUGUAGUAGCCUUAUCCCUGGUCAUUUGGAUUUUCAGUUUGCUUUUUUCUUUUUUUCCCCUCCAAACCAACAGAGGAUUGAGCAUCA"}, "B4": {"name": "ENSG00000170312:stop:overlap|stop_codon|ENSG00000170312|stop_codon|NA|stop_codon (ssRNA)", "RNA": "GGGAGUUCUACAGUCCGACGAUCGCAAAAUGGCACUGAAUCAUCCAUAUUUUAAUGAUUUGGACAAUCAGAUUAAGAAGAUGUAGCUUUCUGACAAAAAGUUUCCAUAUGUUAUAUCAACAGAUAGUUGUGUUUUUAUUGUUACAACAGAGGAUUGAGCAUCA"}, "B5": {"name": "chr12:13219749:13219850:+|3pUTR|ENSG00000134531|unk|FALSE|unique (ssRNA)", "RNA": "GGGAGUUCUACAGUCCGACGAUCACAACAGUGGAUGGGGAGGAAGAACAGACUUUUGAGCUCUUCCCAAUAUAGGAAUGUGUUAGUUCUAAAAAUUUUCUUAAGUUGUUUGCUUGGAACUCAGAGUAUAUUUUUCCAUACGAACAACAGAGGAUUGAGCAUCA"}, "B6": {"name": "chr1:6224442:6224573:-|3pUTR|ENSG00000116237|msi1_unk|FALSE|overlapping (ssRNA)", "RNA": "GGGAGUUCUACAGUCCGACGAUCCUAUACAAUUUUAAAAAUACUUCCUCAUAGGAUGCUUUGGCCCUUCAUCUAUUUAAUCAUAGCUACAUACCUAUUUUUUAUAAGUAGCAGUACACAUUCAAAGGGGUAUUCCUAGCUCAACAACAGAGGAUUGAGCAUCA"}, "B7": {"name": "ENSG00000157823:stop:overlap|stop_codon|ENSG00000157823|stop_codon|NA|stop_codon (ssRNA)", "RNA": "GGGAGUUCUACAGUCCGACGAUCUCCGCUUCUACCAGCGUUUCAAGAAAUUCAACAGCAGAUUGUUCGAGAGACUUUCCAUCUAGUCCUCAAGCGGGAUGACAACAUCUGUAACUUCUUGGAGGGUGGAAGUUUGAUUGGUGGCAACAGAGGAUUGAGCAUCA"}, "B8": {"name": "chr9:116187394:116187495:+|CDS|ENSG00000182752|msi1|FALSE|unique (ssRNA)", "RNA": "GGGAGUUCUACAGUCCGACGAUCUGGGGAACAAGUGGGUGGCAUAUUCAGCCCACUGACCCAGAAGUGCAAAGUGCUCAUGUUAGGGGGCAGUGCCCUGAAUCACAACUACCGGGGCUACAUCGAGCACUUCAGUCUGUGGAACAACAGAGGAUUGAGCAUCA"}, "B9": {"name": "chr19:10391132:10391550:-|three_prime_utr|ENSG00000105401|control|control|control (ssRNA)", "RNA": "GGGAGUUCUACAGUCCGACGAUCCCCCAGCUACCACCGCCACCUGCUUCCAGGCCCCUAUGUGCCCCUUUUCAGAAAACAGAUAGAUGCCAUCUCGCCCGCUCCUGACUUCCUCUACUUGCGCUGCUCGGCCCAGCCUGGGGGCAACAGAGGAUUGAGCAUCA"}, "B10": {"name": "chr2:235053981:235054083:+|3pUTR|ENSG00000130147|unk|FALSE|unique (ssRNA)", "RNA": "GGGAGUUCUACAGUCCGACGAUCCUCCUCCAUCGAGGGAGAGGCCUGAAGGGACUGCCUACUGCAGCUCGUUGCCAAUCACAUAGCUUUCUAUUUGUUAAGUAUAAAUUUAAAUUUAAAAUCACUUUUUUAACGAAUGGGGGGCAACAGAGGAUUGAGCAUCA"}, "B11": {"name": "chr1:212686416:212686790:-|three_prime_utr|ENSG00000123685|control|control|control (ssRNA)", "RNA": "GGGAGUUCUACAGUCCGACGAUCUUGUGCAGAUCCAGCAUGGAGGCCACCCUCAGGAGUGACUUCUCAUCCACCCUGGCAGCUAGUAGGUUCUGCUGUUAUGCAGAGCCAUUUCCUCUAGAAUUUGGAUAAUAAAGAUGCUUACAACAGAGGAUUGAGCAUCA"}, "B12": {"name": "chr16:2457226:2457327:+|3pUTR|ENSG00000162063|unk|total|mutant (ssRNA)", "RNA": "GGGAGUUCUACAGUCCGACGAUCCAAGCCAUCAGAAUGUUGAAAUGAGGGUGAAGAGCUCAGAUCCCUCUCUUUGGAAAGUUCCGCCUGGAAGCAGUUGGCCACACUGUGUGGAGGGCACCUCUCUGUCCCUUCCGUGUCUCACAACAGAGGAUUGAGCAUCA"}, "B13": {"name": "ENSG00000204186:stop:overlap|stop_codon|ENSG00000204186|stop_codon|NA|stop_codon (ssRNA)", "RNA": "GGGAGUUCUACAGUCCGACGAUCAACAACGUGAGAGAAUGAUGACUCGGCUAGCAAACAAACUGAGAGGUAAUGAGGUAAAAUAGAAGUUGGUUUUGUGUUCAGGCUAGUUGAGGAUUCAGUACUUCAGUUGAAAUAUAUUUGCAACAGAGGAUUGAGCAUCA"}, "B14": {"name": "chr11:75587191:75587292:-|CDS|ENSG00000171533|unk|FALSE|unique (ssRNA)", "RNA": "GGGAGUUCUACAGUCCGACGAUCACAGCCUCCAAAGAAUCAAGGUCGUAUAGUCCCUGAACCUCUGAAGAAUCAAGUUCCUAUAGUCCCAGUGCCUCUGAAGGAUCAAGAUCCUCUGGUGCCAGUACCAGCAAAGGACCAAGGCAACAGAGGAUUGAGCAUCA"}, "B15": {"name": "chr17:76725537:76725647:-|CDS|ENSG00000070495|unk|total|mutant (ssRNA)", "RNA": "GGGAGUUCUACAGUCCGACGAUCUACUCAGUGAAGAUGAAGAUGAAAUACUACAUCGAGUACAUGGAGAGCACUCGAGAUGACCGUCCCCUUUACAUCUUUGACAGCAGCUAUGGUGAACACCCUAAAAGAAGGAAACUUUUGCAACAGAGGAUUGAGCAUCA"}, "B16": {"name": "chr1:42278343:42278454:-|CDS|ENSG00000198815|unk|total|mutant (ssRNA)", "RNA": "GGGAGUUCUACAGUCCGACGAUCAAAAAGAAAAUGACUUUAAGUGAAAUUUAUCAGUGGAUUUGUGAUAACUUCCCAUAUUACCGAGAGGCUGGCAGUGGUUGGAAGGUAAGGAUUUUAUUUAAAUUAUUACUUUUAUGAAGUCAACAGAGGAUUGAGCAUCA"}, "B17": {"name": "chr19:9526975:9527076:-|3pUTR|ENSG00000130818|unk|total|mutant (ssRNA)", "RNA": "GGGAGUUCUACAGUCCGACGAUCCCUCUCAGACCUUCCAUCAUUACUAUAUUUCACUUUUAUGCCUAUAAACACACACAAAUCCGCAUAUGUAAUCUAAUACAUUGCCGCUAUUUUUCAGAAGUUAUCAGAUCAAUUAAGUAUCAACAGAGGAUUGAGCAUCA"}, "B18": {"name": "chr5:33997006:33997390:-|three_prime_utr|ENSG00000289791|control|control|control (ssRNA)", "RNA": "GGGAGUUCUACAGUCCGACGAUCAAUUUAUGUUACACUCAGGCUGCUGGGGGAUGCUUCAGUUUCCUUCACAGAAAACUAAAUAGUGGGAAUCCGGACCAAUAAAGAAAGGAUCAAGAAGCUAAUGAAUUAGUCGCUAAUGCUCAACAGAGGAUUGAGCAUCA"}, "B19": {"name": "ENSG00000070961:be:win_151|CDS|ENSG00000070961|bound_else_gene|NA|bound_elsewhere_windowed (ssRNA)", "RNA": "GGGAGUUCUACAGUCCGACGAUCGAAAGCUAUGGAGAUGUCUAUGGAAUUUGCACCAAAUUGAAAACAUCUCCCAAUGAAGGUUUAAGUGGAAACCCUGCAGAUUUAGAAAGAAGAGAAGCAGUGUUUGGAAAGAAUUUUAUACAACAGAGGAUUGAGCAUCA"}, "B20": {"name": "chr12:67313014:67313056:+|3pUTR|ENSG00000111530|msi1_unk|total|mutant (ssRNA)", "RNA": "GGGAGUUCUACAGUCCGACGAUCUUUUUGCCGCAUUUAUUUCAGAAAUGUGUAUUUCCAUAAUCCAGAGGUUGUAAAACCACCCGUGUUUCCGUGGUUACAGCAACAUUUGAAAUGGAAACUAAAAGUCCGGAUUUUAUGGAGCAACAGAGGAUUGAGCAUCA"}, "B21": {"name": "chr1:112912765:112912828:-|3pUTR|ENSG00000155380|msi1_unk|FALSE|overlapping (ssRNA)", "RNA": "GGGAGUUCUACAGUCCGACGAUCUUAAGGUUUGCAAAUUAAAAAGGGCCAGAAAAAUUUGGCACCAGGCAAACGAAUAAAGAUAGGAUUGGGAAAGAAGUUGCUAAGUGUGCUUAGUUUUAAUAAGUAAUUCCUUCUCUUUUUCAACAGAGGAUUGAGCAUCA"}, "B22": {"name": "chrX:101412715:101412817:+|CDS|ENSG00000126945|unk|total|mutant (ssRNA)", "RNA": "GGGAGUUCUACAGUCCGACGAUCGGGUAUGGAGGCUAUGAUGACUAUGGUGGCUAUAAUGAUGGAUAUGGCUUUGGGUCUGACCGAUUUGGAAGAGACCUCAAUUACUGUUUUUCAGGAAUGUCUGAUCACCGAUACGGAGAUCAACAGAGGAUUGAGCAUCA"}}, "note": "Some of the results follow."}
{"biological_target": "MSI1 full-length (mouse, UniProt Q61474 1-362)", "sequence (Q61474 whole entry)": "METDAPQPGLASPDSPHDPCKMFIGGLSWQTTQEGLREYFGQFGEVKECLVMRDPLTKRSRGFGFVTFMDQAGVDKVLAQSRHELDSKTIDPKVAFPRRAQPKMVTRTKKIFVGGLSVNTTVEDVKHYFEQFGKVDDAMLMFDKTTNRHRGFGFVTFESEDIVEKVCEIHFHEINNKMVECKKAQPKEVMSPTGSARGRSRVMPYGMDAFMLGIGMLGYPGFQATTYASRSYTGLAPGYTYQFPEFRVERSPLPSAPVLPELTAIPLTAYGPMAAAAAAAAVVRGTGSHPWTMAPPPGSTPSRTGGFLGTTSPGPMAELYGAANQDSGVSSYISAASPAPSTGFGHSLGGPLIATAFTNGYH", "assay": "nsRBNS (natural sequence RNA bind-n-seq); RBNS binding buffer (assumed for nsRBNS): 25 mM Tris pH 7.5, 150 mM KCl, 3 mM MgCl2, 0.01% Triton X-100, 500 ug/ml BSA, 20 U/ml SUPERase-In, 4 C; UNK is unkempt and MSI1 is Musashi-1; names of the RNAs are library labels; protein concentration not given here; high values mean tight binding", "units": {"binding signal": "enrichment R"}}
{"binder": "B1", "binding signal": 0.46}
{"binder": "B2", "binding signal": 1.2}
{"binder": "B3", "binding signal": 1.07}
{"binder": "B4", "binding signal": 0.414}
{"binder": "B5", "binding signal": 6.85}
{"binder": "B6", "binding signal": 7.66}
{"binder": "B7", "binding signal": 0.348}
{"binder": "B8", "binding signal": 0.448}
{"binder": "B9", "binding signal": 1.18}
{"binder": "B10", "binding signal": 1.21}
{"binder": "B11", "binding signal": 0.405}
{"binder": "B12", "binding signal": 0.345}
{"binder": "B13", "binding signal": 9.87}
{"binder": "B14", "binding signal": 0.45}
{"binder": "B15", "binding signal": 0.362}
{"binder": "B16", "binding signal": 0.995}
{"binder": "B17", "binding signal": 9.57}
{"binder": "B18", "binding signal": 0.681}
{"binder": "B19", "binding signal": 0.695}
{"binder": "B20", "binding signal": 0.295}
{"binder": "B21", "binding signal": 0.542}
{"binder": "B22", "binding signal": 0.469}
